According to US20110021424A1 (published 2011):

T1: Murine PDGF-Rβ-Fc (R&D Systems, #1042-PR/CF) (murine, UniProt P05622 32-530, limits assumed)
T1 construct: Bought; also called mouse PDGF-Rβ; mPDGF-Rβ; not shown: Fc part, bought, not described
T1 sequence (looked up): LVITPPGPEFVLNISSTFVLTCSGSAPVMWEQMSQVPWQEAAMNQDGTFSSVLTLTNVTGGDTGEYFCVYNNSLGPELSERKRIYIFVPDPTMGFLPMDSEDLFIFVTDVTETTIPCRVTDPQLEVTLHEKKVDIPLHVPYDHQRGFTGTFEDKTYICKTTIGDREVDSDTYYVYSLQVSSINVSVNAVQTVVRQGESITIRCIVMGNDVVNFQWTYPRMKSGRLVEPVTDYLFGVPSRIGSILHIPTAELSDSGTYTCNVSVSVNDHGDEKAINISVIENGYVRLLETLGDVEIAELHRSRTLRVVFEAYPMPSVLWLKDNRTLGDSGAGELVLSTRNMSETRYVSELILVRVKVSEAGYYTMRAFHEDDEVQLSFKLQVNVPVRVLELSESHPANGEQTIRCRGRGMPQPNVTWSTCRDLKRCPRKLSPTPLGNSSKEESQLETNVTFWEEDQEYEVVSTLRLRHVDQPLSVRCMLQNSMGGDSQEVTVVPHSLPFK

T2: fibrinogen (Enzyme research, #031015E) (human, UniProt P02671 20-630; P02675 31-491; P02679 27-433, Native plasma fibrinogen is a disulfide-linked dimer of alpha-beta-gamma trimers, (AαBβγ)2, and is glycosylated. One copy of each chain is given.)
T2 construct: Several chains
T2 sequence (alpha): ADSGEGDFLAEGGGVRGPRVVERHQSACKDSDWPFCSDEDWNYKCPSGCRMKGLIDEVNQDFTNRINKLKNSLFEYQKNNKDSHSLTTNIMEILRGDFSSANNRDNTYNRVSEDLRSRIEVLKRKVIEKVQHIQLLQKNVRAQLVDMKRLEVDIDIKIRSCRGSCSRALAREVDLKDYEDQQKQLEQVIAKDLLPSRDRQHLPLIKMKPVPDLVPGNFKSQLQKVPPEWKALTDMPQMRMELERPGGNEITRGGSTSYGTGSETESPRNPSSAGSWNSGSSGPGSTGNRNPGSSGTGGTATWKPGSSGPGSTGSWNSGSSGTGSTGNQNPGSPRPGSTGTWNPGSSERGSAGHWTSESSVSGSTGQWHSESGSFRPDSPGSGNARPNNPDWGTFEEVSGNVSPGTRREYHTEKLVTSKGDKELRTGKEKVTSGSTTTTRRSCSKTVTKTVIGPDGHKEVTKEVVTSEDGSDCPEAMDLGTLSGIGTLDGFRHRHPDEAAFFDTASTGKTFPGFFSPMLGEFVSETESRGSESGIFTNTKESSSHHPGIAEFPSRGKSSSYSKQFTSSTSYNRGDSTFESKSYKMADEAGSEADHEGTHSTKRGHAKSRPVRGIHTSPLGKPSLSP
T2 sequence (beta): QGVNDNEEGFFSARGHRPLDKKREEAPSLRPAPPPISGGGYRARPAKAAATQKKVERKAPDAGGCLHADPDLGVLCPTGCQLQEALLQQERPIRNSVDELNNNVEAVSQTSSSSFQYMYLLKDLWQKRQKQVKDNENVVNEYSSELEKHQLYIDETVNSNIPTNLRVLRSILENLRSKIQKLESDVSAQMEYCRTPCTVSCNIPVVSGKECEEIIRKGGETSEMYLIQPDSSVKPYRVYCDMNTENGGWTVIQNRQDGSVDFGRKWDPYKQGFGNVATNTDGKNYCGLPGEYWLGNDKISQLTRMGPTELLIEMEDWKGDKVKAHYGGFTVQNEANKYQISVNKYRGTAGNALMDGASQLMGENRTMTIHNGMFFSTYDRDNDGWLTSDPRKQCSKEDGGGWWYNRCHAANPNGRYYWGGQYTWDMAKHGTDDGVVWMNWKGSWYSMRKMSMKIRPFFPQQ
T2 sequence (gamma): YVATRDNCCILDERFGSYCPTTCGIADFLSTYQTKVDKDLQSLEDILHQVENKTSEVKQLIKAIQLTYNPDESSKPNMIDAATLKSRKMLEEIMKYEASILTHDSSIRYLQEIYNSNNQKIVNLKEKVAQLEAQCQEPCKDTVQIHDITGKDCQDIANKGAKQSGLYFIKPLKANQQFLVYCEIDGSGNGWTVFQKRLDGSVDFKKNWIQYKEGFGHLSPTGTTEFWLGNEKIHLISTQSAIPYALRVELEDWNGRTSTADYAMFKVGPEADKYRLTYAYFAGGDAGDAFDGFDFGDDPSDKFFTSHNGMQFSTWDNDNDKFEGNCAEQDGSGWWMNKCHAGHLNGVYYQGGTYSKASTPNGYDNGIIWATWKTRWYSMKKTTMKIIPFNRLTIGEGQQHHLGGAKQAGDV

T3: haptoglobulin (RDI, #RDI-SCP-119-1) (human, UniProt P00738 19-406, limits assumed)
T3 sequence (looked up): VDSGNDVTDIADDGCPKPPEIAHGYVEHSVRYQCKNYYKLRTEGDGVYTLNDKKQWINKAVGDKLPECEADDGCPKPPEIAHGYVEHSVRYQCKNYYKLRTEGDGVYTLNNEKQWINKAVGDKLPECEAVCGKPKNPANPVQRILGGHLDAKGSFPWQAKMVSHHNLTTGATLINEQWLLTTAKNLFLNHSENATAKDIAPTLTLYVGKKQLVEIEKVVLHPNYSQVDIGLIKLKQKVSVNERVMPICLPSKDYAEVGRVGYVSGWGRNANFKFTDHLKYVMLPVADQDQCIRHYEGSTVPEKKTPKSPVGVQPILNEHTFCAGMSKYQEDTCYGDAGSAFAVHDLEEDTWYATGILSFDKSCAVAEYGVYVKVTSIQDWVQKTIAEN

B1: His6-(Z02465)2-Cys (designed binder)
chain: MGSSHHHHHHLQVDNKFNKELIEAAAEIDALPNLNRRQWNAFIKSLVDDPSQSANLLAEAKKLNDAQAPKVDNKFNKELIEAAAEIDALPNLNRRQWNAFIKSLVDDPSQSANLLAEAKKLNDAQAPKVDC
notes: also called Z02465 (dimer)
B2: His6-(Z02483)2-Cys (designed binder)
chain: MGSSHHHHHHLQVDNKFNKELVKAAAEIDALPNLNRRQWNAFIKSLVDDPSQSANLLAEAKKLNDAQAPKVDNKFNKELVKAAAEIDALPNLNRRQWNAFIKSLVDDPSQSANLLAEAKKLNDAQAPKVDC
notes: also called Z02483 (dimer)

How the values were obtained:
[1] = biological target: T1, Murine PDGF-Rβ-Fc (R&D Systems, …); test: dot blot, dimeric Z variant
[2] = biological target: holo-transferrin (Sigma, #T0665) (human, UniProt P02787 20-698); test: dot blot
[3] = biological target: alpha-1 acid glycoprotein (RDI, #RDI-SCP-153-1) (human, UniProt P02763 19-201); test: dot blot
[4] = biological target: T2, fibrinogen (Enzyme research, #031015E); test: dot blot
[5] = biological target: alpha-1-antitrypsin (RDI, #RDI-SCP-165-5) (human, UniProt P01009 25-418); test: dot blot
[6] = biological target: T3, haptoglobulin (RDI, #RDI-SCP-119-1); test: dot blot

Row | Binder | binding result [1] | binding result [2] | binding result [3] | binding result [4] | binding result [5] | binding result [6]
1 | B1 | binds | no binding | no binding | no binding | no binding | no binding
2 | B2 | binds | no binding | no binding | no binding | no binding | no binding
